{"source": "PubChem BioAssay AID651820", "about": "(National Center for Advancing Translational Sciences (NCATS), 2012)", "note": "The campaign covered roughly 340,000 compounds. About 12,000 (3.5%) were called active. The shares of active, inactive and inconclusive entries below differ from those in the screen. The call rests on the fitted dose curve; in most records, active means well fitted inhibition curve with a large enough effect; inconclusive means small, poorly fitted or top-dose-only effect, or another doubt; inactive means no such curve, though single readings can be large or run the other way. No potency is given beside an inconclusive call; the fits are too rough. Potency means the concentration at half of the fitted maximal effect; tags describe the fitted curve by direction and shape."}
{"experiment": "qHTS Assay for Inhibitors of Hepatitis C Virus (HCV)", "conditions": "Huh7.5.1 HCVcc-Cre (HCVcc is cell-culture hepatitis C virus) infection, luciferase reporter, 44 h; series mostly up to 41.8 µM", "summary_of_the_method": "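Seed cells (1,000/well) for 4 h; treat with compound and infect with HCVcc-Cre, moi about 0.5. Incubate 44 h, then detect luciferase activity.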"}
{"smiles": "O=C(CCCN1C(=O)S/C(=C\\c2ccccc2)C1=O)NNC(=O)c1ccccc1O", "Potency": "inconclusive [inhibitor, single point]"}
{"smiles": "Cc1noc(NS(=O)(=O)c2ccc(NC(=O)C(F)(F)C(F)(F)C(F)(F)F)cc2)c1C", "Potency": "inactive"}
{"smiles": "CC1CCC2(CC1)NC(=O)N(CC(=O)Nc1ccc3c(c1)CCC3)C2=O", "note": "(centres undefined)", "Potency": "inconclusive [inhibitor, single point]"}
{"smiles": "O=C(Nc1ccc(Cl)cc1)Nn1cnnc1", "Potency": "inactive"}
{"smiles": "Cc1nc(Nc2ccccc2F)c2oc3ccccc3c2n1", "Potency": "inconclusive [inhibitor, single point]"}
{"smiles": "Cc1ccc(S(=O)(=O)N2CCN(C(=O)c3ccco3)CC2)cc1", "Potency": "inactive"}
{"smiles": "S=c1[nH]nc(-c2ccco2)n1-c1ccccc1Cl", "Potency": "inactive"}
{"smiles": "Cc1cccc(OCCCc2c(C)n[nH]c2C)c1", "Potency": "inconclusive [inhibitor, partial curve, poor fit]"}
{"smiles": "O=C(CCC(=O)N(CC(=O)NC1CCCC1)Cc1ccc(F)cc1)Nc1nccs1", "Potency": "inactive"}
{"smiles": "CC(C)CC1NC(=O)c2ccc(Cl)cc2-n2c1nc1ccc(Cl)cc1c2=O", "note": "(centres undefined)", "Potency": "inactive"}
{"smiles": "CN(CCCC(=O)N1CCN(c2ncccn2)CC1)S(=O)(=O)c1ccc(F)cc1", "Potency": "inactive"}
{"smiles": "COc1cccc(-n2c(CN3CCN(Cc4ccccc4)CC3)nc3ccc([N+](=O)[O-])cc3c2=O)c1", "Potency": "inactive"}
{"smiles": "Cc1cccc(NS(=O)(=O)c2ccc(C(=O)N3CC(C)OC(C)C3)cc2)c1C", "note": "(centres undefined)", "Potency": "inactive"}
{"smiles": "CN1CCN(C(=O)c2cnn3c(C(F)(F)F)cc(-c4cccs4)nc23)CC1", "Potency": "inactive"}
{"smiles": "COc1ccc(Cn2nnnc2C(CC(C)C)N2CCC(C(N)=O)CC2)cc1", "note": "(centres undefined)", "Potency": "inactive"}
{"smiles": "O=S(=O)(Nc1ccc(Cc2ccncc2)cc1)c1ccc(Cl)cc1", "Potency": "active: 11.2 µM"}
{"smiles": "Cc1ccc(-c2nn(CC(=O)NCc3ccccn3)c(=O)c3ccccc23)cc1S(=O)(=O)N(C)C", "Potency": "inactive"}
{"smiles": "Clc1ccc(CN2C3=NCCCN3c3ccccc32)cc1Cl", "Potency": "inconclusive [inhibitor, single point]"}
{"smiles": "O=C(Cc1c(Sc2ccccc2)c2ccccc2n1Cc1ccccc1)NCCO", "Potency": "inconclusive [inhibitor, single point]"}
{"smiles": "CCNS(=O)(=O)c1ccc(CCC(=O)NCc2ccccc2)cc1", "Potency": "inactive"}
{"smiles": "O=C(c1ccc2c(c1)OCCO2)C1CCN(C(=O)c2ccc(F)c(F)c2)CC1", "Potency": "inconclusive [inhibitor, single point]"}
{"smiles": "O=C(Nc1cccc(CNCCc2c[nH]c3ccccc23)c1)c1ccccc1Cl", "Potency": "inconclusive [inhibitor, single point]"}
{"smiles": "CCOC(=O)N1CCN(C(=O)COc2cccc3c2CCN(Cc2ccc(F)cc2)C3=O)CC1", "Potency": "inconclusive [inhibitor, single point]"}
{"smiles": "CN(C)CCNC(=O)c1ccccc1-c1ccccc1", "Potency": "inactive"}
{"smiles": "CCCCOC(=O)/C=C\\C(=O)NC(N)=O", "Potency": "inconclusive [inhibitor, single point]"}
{"smiles": "COc1cccc(OCCSc2nc(N)cc(N)n2)c1", "Potency": "inconclusive [inhibitor, single point]"}
{"smiles": "C=CCC1(CC=C)CCCN1C(=O)c1cc(COc2ccccc2SC)on1", "Potency": "inconclusive [inhibitor, single point]"}
{"smiles": "COC(=O)c1ccccc1NC(=O)COC(=O)CSc1nnc(N)s1", "Potency": "inactive"}
{"smiles": "CCCn1nc(NC(=O)c2cccs2)c2cc3ccc(C)cc3nc21", "Potency": "active: 14.1 µM"}
{"smiles": "Cc1ccc(S(=O)(=O)c2c(C)nn(C(C)(C)C)c2OC(=O)c2ccco2)cc1", "Potency": "inactive"}
{"smiles": "COc1ccc(Nc2oc(COc3ccc(C)cc3)nc2C#N)cc1", "Potency": "inconclusive [inhibitor, partial curve]"}
{"smiles": "CCOC(=O)c1[nH]c(=O)[nH]c1CSCCO", "Potency": "inconclusive [inhibitor, single point]"}
{"smiles": "COc1ccc(C2C(C(=O)c3sc(C)nc3C)=C(O)C(=O)N2CCN(C)C)cc1OC", "note": "(centres undefined)", "Potency": "inconclusive [inhibitor, single point]"}
{"smiles": "CCN(CC)C(=O)Cn1cc(C(=O)C(=O)N2CCN(c3ccc(OC)cc3)CC2)c2ccccc21", "Potency": "inactive"}
{"smiles": "CCCCCc1nc2c(c3c1CCCC3)CCCC2", "Potency": "inconclusive [inhibitor, partial curve]"}
{"smiles": "Cc1ccc(C2C=C(c3ccccc3OC(F)F)Nc3ncnn32)cc1", "note": "(centres undefined)", "Potency": "inactive"}
{"smiles": "COc1ccccc1N/C(N)=N/c1nc(C)cc(C)n1", "Potency": "inactive"}
{"smiles": "COc1ccc(CN2CCN(C(=O)CCC(=O)Nc3nnc(C(C)C)s3)CC2)cc1F", "Potency": "inconclusive [inhibitor, single point]"}
{"smiles": "CCn1cc(C(=S)N2CCC(C(N)=O)CC2)c2ccccc21", "Potency": "inactive"}
{"smiles": "O=C(Nc1ncc(Cc2ccccc2)s1)C1COc2ccccc2O1", "note": "(centres undefined)", "Potency": "inconclusive [inhibitor, partial curve]"}
{"smiles": "O=C1c2c(O)cc(O)cc2O[C@H](c2ccc(O)c(O)c2)[C@H]1O", "Potency": "active: 0.562 µM"}
{"smiles": "COc1ccc(-c2[nH]c(-c3ccc(F)cc3)nc2SCC(=O)NC2CCCC2)cc1", "Potency": "inconclusive [inhibitor, single point]"}
{"smiles": "CCN1CN=C(NS(=O)(=O)c2ccc(C)cc2)NC1", "Potency": "inconclusive [inhibitor, single point]"}
{"smiles": "Cc1ccc(NC(=O)CN(C)C(=O)CNC(=O)c2sc3ccccc3c2Cl)cc1", "Potency": "inconclusive [inhibitor, full curve]"}
{"smiles": "Cc1ccc(S(=O)(=O)Nc2c(O)ccc3ccccc23)cc1", "Potency": "inconclusive [inhibitor, single point]"}
{"smiles": "COc1ccc(CN(C)CC2CCCN(CCc3ccc(F)cc3)C2)cc1OC", "note": "(centres undefined)", "Potency": "inconclusive [inhibitor, partial curve]"}
{"smiles": "Cc1nn(C)c(C)c1CN(Cc1nc(-c2ccc(F)cc2F)oc1C)C1CC1", "Potency": "inconclusive [inhibitor, single point]"}
{"smiles": "Cc1cccc(OCCCCCn2ccnc2)c1", "Potency": "inconclusive [inhibitor, single point]"}
{"smiles": "COc1ccc(CCC(=O)NCCS(=O)(=O)N2CCN(c3ccccc3OC)CC2)cc1", "Potency": "active: 14.1 µM"}
